B1: AUGUACU (DNA:RNA)
RNA: GGGAGACCGGAAUUCAGAUUGUCCAUGUACUUUAAAUCCCGUCGUAGCCACCA
DNA 1: CAATCTGAATTCCGGTCTCCC
DNA 2: TGGTGGCTACGACGGGATT
B2: AGGCGCG (DNA:RNA)
RNA: B1 RNA with U26G, U28C, A29G, U31G
DNA 1: CAATCTGAATTCCGGTCTCCC
DNA 2: TGGTGGCTACGACGGGATT
B3: GUUCCUU (DNA:RNA)
RNA: B1 RNA with A25G, G27U, U28C, A29C, C30U
DNA 1: CAATCTGAATTCCGGTCTCCC
DNA 2: TGGTGGCTACGACGGGATT
B4: AAGUCCC (DNA:RNA)
RNA: B1 RNA with U26A, A29C, U31C
DNA 1: CAATCTGAATTCCGGTCTCCC
DNA 2: TGGTGGCTACGACGGGATT
B5: UUAUGCC (DNA:RNA)
RNA: B1 RNA with A25U, G27A, A29G, U31C
DNA 1: CAATCTGAATTCCGGTCTCCC
DNA 2: TGGTGGCTACGACGGGATT
B6: UUUGCAU (DNA:RNA)
RNA: B1 RNA with A25U, G27U, U28G, A29C, C30A
DNA 1: CAATCTGAATTCCGGTCTCCC
DNA 2: TGGTGGCTACGACGGGATT
B7: AUUAGUU (DNA:RNA)
RNA: B1 RNA with G27U, U28A, A29G, C30U
DNA 1: CAATCTGAATTCCGGTCTCCC
DNA 2: TGGTGGCTACGACGGGATT
B8: GCAACUU (DNA:RNA)
RNA: B1 RNA with A25G, U26C, G27A, U28A, A29C, C30U
DNA 1: CAATCTGAATTCCGGTCTCCC
DNA 2: TGGTGGCTACGACGGGATT
B9: GAAUCGG (DNA:RNA)
RNA: B1 RNA with A25G, U26A, G27A, A29C, C30G, U31G
DNA 1: CAATCTGAATTCCGGTCTCCC
DNA 2: TGGTGGCTACGACGGGATT
B10: UCAUUGU (DNA:RNA)
RNA: B1 RNA with A25U, U26C, G27A, A29U, C30G
DNA 1: CAATCTGAATTCCGGTCTCCC
DNA 2: TGGTGGCTACGACGGGATT
B11: UCGACUA (DNA:RNA)
RNA: B1 RNA with A25U, U26C, U28A, A29C, C30U, U31A
DNA 1: CAATCTGAATTCCGGTCTCCC
DNA 2: TGGTGGCTACGACGGGATT
B12: CGUGCCA (DNA:RNA)
RNA: B1 RNA with A25C, U26G, G27U, U28G, A29C, U31A
DNA 1: CAATCTGAATTCCGGTCTCCC
DNA 2: TGGTGGCTACGACGGGATT
B13: AUGGGUA (DNA:RNA)
RNA: B1 RNA with U28G, A29G, C30U, U31A
DNA 1: CAATCTGAATTCCGGTCTCCC
DNA 2: TGGTGGCTACGACGGGATT
B14: CAUCCCU (DNA:RNA)
RNA: B1 RNA with A25C, U26A, G27U, U28C, A29C
DNA 1: CAATCTGAATTCCGGTCTCCC
DNA 2: TGGTGGCTACGACGGGATT
B15: CAUAGCG (DNA:RNA)
RNA: B1 RNA with A25C, U26A, G27U, U28A, A29G, U31G
DNA 1: CAATCTGAATTCCGGTCTCCC
DNA 2: TGGTGGCTACGACGGGATT
B16: CUCUUCG (DNA:RNA)
RNA: B1 RNA with A25C, G27C, A29U, U31G
DNA 1: CAATCTGAATTCCGGTCTCCC
DNA 2: TGGTGGCTACGACGGGATT
B17: UCGGCCU (DNA:RNA)
RNA: B1 RNA with A25U, U26C, U28G, A29C
DNA 1: CAATCTGAATTCCGGTCTCCC
DNA 2: TGGTGGCTACGACGGGATT
B18: UUUAUAA (DNA:RNA)
RNA: B1 RNA with A25U, G27U, U28A, A29U, C30A, U31A
DNA 1: CAATCTGAATTCCGGTCTCCC
DNA 2: TGGTGGCTACGACGGGATT
B19: CGUUUCC (DNA:RNA)
RNA: B1 RNA with A25C, U26G, G27U, A29U, U31C
DNA 1: CAATCTGAATTCCGGTCTCCC
DNA 2: TGGTGGCTACGACGGGATT
B20: UUUAAAU (DNA:RNA)
RNA: B1 RNA with A25U, G27U, U28A, C30A
DNA 1: CAATCTGAATTCCGGTCTCCC
DNA 2: TGGTGGCTACGACGGGATT
B21: GCUGCGC (DNA:RNA)
RNA: GGGAGACCGGAAUUCAGAUUGUCCGCUGCGCUUAAAUCCCGUCGUAGCCACCA
DNA 1: CAATCTGAATTCCGGTCTCCC
DNA 2: TGGTGGCTACGACGGGATT
B22: GUGUGAC (DNA:RNA)
RNA: B1 RNA with A25G, A29G, C30A, U31C
DNA 1: CAATCTGAATTCCGGTCTCCC
DNA 2: TGGTGGCTACGACGGGATT
B23: AUGACUA (DNA:RNA)
RNA: B1 RNA with U28A, A29C, C30U, U31A
DNA 1: CAATCTGAATTCCGGTCTCCC
DNA 2: TGGTGGCTACGACGGGATT
B24: AAUAUAG (DNA:RNA)
RNA: B1 RNA with U26A, G27U, U28A, A29U, C30A, U31G
DNA 1: CAATCTGAATTCCGGTCTCCC
DNA 2: TGGTGGCTACGACGGGATT
B25: AGAAAAG (DNA:RNA)
RNA: B1 RNA with U26G, G27A, U28A, C30A, U31G
DNA 1: CAATCTGAATTCCGGTCTCCC
DNA 2: TGGTGGCTACGACGGGATT
B26: GAAUCGA (DNA:RNA)
RNA: B21 RNA with C26A, U27A, G28U, C31A
DNA 1: CAATCTGAATTCCGGTCTCCC
DNA 2: TGGTGGCTACGACGGGATT
B27: GAUCCGG (DNA:RNA)
RNA: B21 RNA with C26A, G28C, C31G
DNA 1: CAATCTGAATTCCGGTCTCCC
DNA 2: TGGTGGCTACGACGGGATT
B28: UAGGUGG (DNA:RNA)
RNA: B21 RNA with G25U, C26A, U27G, C29U, C31G
DNA 1: CAATCTGAATTCCGGTCTCCC
DNA 2: TGGTGGCTACGACGGGATT
B29: GGUGCUA (DNA:RNA)
RNA: B21 RNA with C26G, G30U, C31A
DNA 1: CAATCTGAATTCCGGTCTCCC
DNA 2: TGGTGGCTACGACGGGATT
B30: GGCUGUG (DNA:RNA)
RNA: B1 RNA with A25G, U26G, G27C, A29G, C30U, U31G
DNA 1: CAATCTGAATTCCGGTCTCCC
DNA 2: TGGTGGCTACGACGGGATT
B31: UAUUAGC (DNA:RNA)
RNA: B21 RNA with G25U, C26A, G28U, C29A
DNA 1: CAATCTGAATTCCGGTCTCCC
DNA 2: TGGTGGCTACGACGGGATT

Numbering of substitutions follows the chain as printed; changes in the protein carry UniProt numbers. This is one part of the list.

In this experiment the target is T1, RBFOX1 RRM RbFoxmut (Fox-RRM*) (Homo sapiens, UniProt Q9NWB1 109-208, R118D;E147R;N151S;E152T).
T1 sequence: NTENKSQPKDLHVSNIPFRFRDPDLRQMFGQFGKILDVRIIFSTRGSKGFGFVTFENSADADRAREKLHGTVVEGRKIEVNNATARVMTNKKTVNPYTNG
The experiment in a line: EMSA; HiTS-Eq, 1 nM pool, 10 min; buffer printed only for the single-RNA assays: 10 mM Tris pH 7.5, 150 mM NaCl, 3.4 mM EDTA, 0.001% NP-40, 30 C. To be noted: tags: His6 N-terminal (pET28a); label: 5' 32P. The method in brief: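 Purified wild-type or mutant RbFox RRM at increasing concentrations was equilibrated with 1 nM of 5′-radiolabelled RNA carrying 7 randomized nucleotides for 10 min in 50 µL. Unbound RNA was separated by 8% native PAGE and sequenced. Relative association constants came from read-count changes of each RNA species compared with the control reaction, normalised to the cognate motif.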
In general terms: A gel shift assay detects complexes by their altered migration in electrophoresis.
On to B1, for which the binding signal is 0.109 KA relative to UGCAUGU. With B2, the binding signal was 0.17 KA relative to UGCAUGU. Consider B3, for which the binding signal is 0.0772 KA relative to UGCAUGU. Turning to B4, the binding signal was 0.048 KA relative to UGCAUGU.

As for B5, the binding signal is 0.221 KA relative to UGCAUGU.

For B6, the binding signal is 0.139 KA relative to UGCAUGU. The figure for B7 is 0.129 KA relative to UGCAUGU. In the case of B8 it was 0.0579 KA relative to UGCAUGU; in that of B9, 0.186 KA relative to UGCAUGU. In the case of B10 it was 0.14 KA relative to UGCAUGU. Turning to B11, the binding signal was 0.078 KA relative to UGCAUGU. With B12, the binding signal is 0.0901 KA relative to UGCAUGU. In the case of B13 it was 0.212 KA relative to UGCAUGU. In the case of B14 it was 0.0969 KA relative to UGCAUGU. In the case of B15 it was 0.123 KA relative to UGCAUGU; in that of B16, 0.104 KA relative to UGCAUGU; in that of B17, 0.113 KA relative to UGCAUGU.

B18: the binding signal is 0.102 KA relative to UGCAUGU. B19: the binding signal was 0.0695 KA relative to UGCAUGU. In the case of B20 it was 0.0844 KA relative to UGCAUGU; in that of B21, 0.134 KA relative to UGCAUGU; in that of B22, 0.0854 KA relative to UGCAUGU. Turning to B23, the binding signal is 0.0952 KA relative to UGCAUGU.

For the molecule B24, the binding signal is 0.107 KA relative to UGCAUGU. The figure for B25 is 0.118 KA relative to UGCAUGU; for B26 it is 0.561 KA relative to UGCAUGU; for B27 it is 0.06 KA relative to UGCAUGU. The figure for B28 is 0.083 KA relative to UGCAUGU; for B29 it is 0.0772 KA relative to UGCAUGU; for B30 it is 0.235 KA relative to UGCAUGU. In the case of B31 it was 0.0989 KA relative to UGCAUGU.

The values above are taken from publication PMC9911399, “Two distinct binding modes provide the RNA-binding protein RbFox with extraordinary sequence specificity”.
